Experimental data published in paper PMC4336329 (PLoS ONE, 2015).
Screen size: about 310,000 compounds; about 2,200 (0.71%) showed an effect of 50% or more. Effects have a minus sign here. This is one part of the list.

These molecules were tested against human ether-à-go-go-related gene (hERG) potassium channel (human, UniProt Q12809) (assay: primary screen, population patch clamp on CHO cells stably expressing hERG).
Chain of human ether-à-go-go-related gene (hERG) potassium channel (Q12809 whole entry, looked up): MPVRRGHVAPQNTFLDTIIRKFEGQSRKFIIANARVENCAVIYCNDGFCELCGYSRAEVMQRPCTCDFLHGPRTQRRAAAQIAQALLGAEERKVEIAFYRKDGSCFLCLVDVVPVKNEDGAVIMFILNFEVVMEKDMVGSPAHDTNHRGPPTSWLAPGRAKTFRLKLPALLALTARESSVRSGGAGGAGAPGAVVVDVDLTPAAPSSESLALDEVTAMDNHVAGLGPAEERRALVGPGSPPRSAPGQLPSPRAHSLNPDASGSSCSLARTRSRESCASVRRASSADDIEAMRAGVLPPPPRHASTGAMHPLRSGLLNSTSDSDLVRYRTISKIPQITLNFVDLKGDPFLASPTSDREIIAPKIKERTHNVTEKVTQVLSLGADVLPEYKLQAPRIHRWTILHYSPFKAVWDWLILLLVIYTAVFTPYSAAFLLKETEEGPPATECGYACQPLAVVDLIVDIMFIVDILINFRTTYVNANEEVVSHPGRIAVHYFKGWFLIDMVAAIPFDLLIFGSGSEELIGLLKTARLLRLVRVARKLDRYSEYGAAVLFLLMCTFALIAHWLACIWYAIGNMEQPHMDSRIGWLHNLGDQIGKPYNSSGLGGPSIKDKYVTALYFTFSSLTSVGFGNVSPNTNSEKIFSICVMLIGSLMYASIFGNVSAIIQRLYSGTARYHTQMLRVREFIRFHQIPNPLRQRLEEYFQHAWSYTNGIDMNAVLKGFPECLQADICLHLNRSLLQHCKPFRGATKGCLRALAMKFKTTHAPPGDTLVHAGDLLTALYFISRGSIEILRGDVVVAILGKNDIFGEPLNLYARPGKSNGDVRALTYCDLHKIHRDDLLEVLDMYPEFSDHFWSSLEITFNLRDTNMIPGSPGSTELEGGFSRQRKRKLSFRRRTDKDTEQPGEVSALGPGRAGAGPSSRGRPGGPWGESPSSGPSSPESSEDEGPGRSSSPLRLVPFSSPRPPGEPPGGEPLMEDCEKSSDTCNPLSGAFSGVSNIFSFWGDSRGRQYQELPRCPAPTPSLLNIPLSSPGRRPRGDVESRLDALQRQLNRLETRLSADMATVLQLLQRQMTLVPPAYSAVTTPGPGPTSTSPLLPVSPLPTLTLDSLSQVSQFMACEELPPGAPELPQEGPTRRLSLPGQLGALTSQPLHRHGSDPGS

Compound	hERG current change (%, negative = inhibition) at 1uM [%]
O=C(c1cnc2sccn2c1=O)N1CCCc2ccccc21	18.9
Cc1cc(C)c(C#N)c(SCc2ccc3c(c2)OCO3)n1	6.03
CCN(CC)C(=O)N1CCC(NC(=O)Cc2ccccc2)CC1	2.25
COc1ccccc1OCCSc1nc2ccccc2c(=O)[nH]1	8.29
CC(=O)Cc1nsc(NC(=O)c2ccc(-c3ccc(Cl)c(Cl)c3)o2)n1	-0.39
Cc1cc([N+](=O)[O-])nn1CCCC(=O)NCc1ccc(F)cc1	9.26
CCn1nnnc1SCC(=O)NC1CCCC1	16.6
O=C(CCc1ccccc1)Nc1ccccc1	3.09
CCOc1ccc(S(=O)(=O)Nc2cccc(OC)c2)cc1	-5.91
CC(/C=C/c1ccccc1)=N\NC(=O)CNC(=O)c1ccccc1Cl	8.46
COc1ccc(CNC(=O)CNC(c2ccccc2)c2ccccc2)cc1OC	-0.607
CC1CCCC(C)N1C(=O)Cn1cc(C#N)c2ccccc21 (stereo not drawn)	10.7
COc1ccc(N(CC(=O)Nc2ccc(F)cc2F)S(=O)(=O)c2c(C)nn(C)c2C)cc1	11.7
COc1cccc(CNC(=O)Cc2csc(Nc3nc(=S)[nH]c4ccccc34)n2)c1	11.9
CCOC(=O)C1=C(C)N=c2sc(=C(C)C)c(=O)n2C1c1ccc(N(C)C)cc1 (stereo not drawn)	13.7
COc1ccc(NC(=O)CSc2nnc(C3CCCCC3)o2)c(OC)c1	10.4
CCOC(=O)N1CCN(c2c(N3CCC(N4CCCCC4)CC3)c(=O)c2=O)CC1	14.4
Cc1nc(Nc2c(Cl)cccc2Cl)sc1C(=O)Nc1ccccc1	-0.374
Cc1ccc(OCCC(=O)OCC(=O)NNC(=O)c2ccccc2)cc1	17.8
O=C(C1CCN(S(=O)(=O)c2cc(Cl)ccc2Cl)CC1)N1CCCC1	23.4
O=c1c(-c2cccc3ccccc23)[n+]([O-])c2ccccc2n1O	9.75
C=CCn1c(O)c(C(C)=Nc2cc(OC)ccc2OC)c(=O)[nH]c1=O	8.03
COc1ccccc1NC(=S)NCc1ccccc1Cl	8.34

Compound	hERG current change (%, negative = inhibition) at 1uM [%]
COc1ccccc1CNC(=O)CNC(=O)Cn1cnc2ccccc2c1=O	16.1
CC(Nc1cc(N2CCOCC2)ccc1[N+](=O)[O-])c1ccccc1 (stereo not drawn)	8.68
CSc1ccccc1OCc1cc(C(=O)NCC(C)(C)N2CCOCC2)no1	-72.2
O=C(CCN1C(=O)c2ccccc2S1(=O)=O)NCc1ccccc1	3.99
O=C(NCc1ccc2c(c1)OCO2)c1cc2ncc(Br)cn2n1	14
O=C(NCCn1cccn1)C1CCC(=O)N(CCc2ccccc2)C1 (stereo not drawn)	9.49
CC(C)OP(=O)(OC(C)C)C1(NS(=O)(=O)c2ccc(Cl)cc2)C=C(Cl)C(=O)C(Cl)=C1	-8.09
COc1ccc(C(=O)Nc2cnc3sc(C)nn3c2=O)cc1	1.75
C/C=C/C=C\C(=O)Nc1cccc(C2=NOC3(C2)C[C@@H](C(N)=O)N(C(=O)/C(C)=C/C)C3)c1 (stereo partly drawn)	13.7
Cc1ccc(C)c(NC(=O)c2ccc(S(=O)(=O)N(C)CC3CCCO3)cc2)c1 (stereo not drawn)	-4.9
CN(CC(=O)NCCN1CCN(c2ccccc2)CC1)S(=O)(=O)c1ccc2c(c1)CCC(=O)N2	4.69
CNC(=S)NNC(=O)c1c(C)nc2cc(C)ccn12	6.17
CCCCc1ccc(NC(=S)NCCCN2CCOCC2)cc1	-1.95
CCCN1CCN(CC(=O)Nc2cc(OCC)ccc2OCC)CC1.Cl	-23.9
CN(C)c1nc(C#N)nc(N2CCOCC2)n1	4.15
Cc1cc(C)c(NC(=S)N2CCN(c3ccc([N+](=O)[O-])cn3)CC2)cc1C	9.86
CCOC(=O)c1ccc(N2C(=O)CC(NC3CCN(C(=O)c4ccc(F)cc4)CC3)C2=O)cc1 (stereo not drawn)	14.5
Cc1[nH]c2ccc(-c3nnc(SCC(=O)c4ccc(F)cc4)o3)cc2c1C	23.5
O=C(NNC(=O)c1cccs1)c1csc(N2CCOCC2)n1	18.6
CC(=O)c1c(O)n(C)c(=S)n(-c2ccccc2)c1=O	17.1
Cc1ccc(C(=O)N2CCN(C)CC2)cc1S(=O)(=O)N1CCCCCC1	-0.13
CNc1ccc(Br)cc(C(=O)/C=C/c2ccc(OC)cc2OC)c1=O	9.87
CCc1noc(C)c1C(=O)OC(C)C(=O)Nc1ccccc1OC (stereo not drawn)	4.52

Compound	hERG current change (%, negative = inhibition) at 1uM [%]
COC(=O)c1ccc(OC(=O)c2cnccn2)cc1	13.7
Cc1ccc(S(=O)(=O)/N=C2/C=C(Sc3ncn[nH]3)C(=O)c3ccccc32)c(C)c1	20.2
C=CCN1C(=O)c2ccc(C(=O)OCC(=O)Nc3ccc(S(N)(=O)=O)cc3)cc2C1=O	7.09
Cc1ccc(C)c(-n2c(N)c(C(N)=O)sc2=S)c1	-5.99
CCOC(=O)c1cc(C(=O)c2cc(F)ccc2O)coc1=N	-2.96
Cc1ccc(NC(=O)CCN2C(=O)C3CCCCC3C2=O)cc1[N+](=O)[O-] (stereo not drawn)	-5.48
COc1ccc(CCNC(=O)COC(=O)c2ccc(C)s2)cc1	-1.76
Cc1ccc2nc3n(c(=O)c2c1)-c1ccc(Cl)cc1C(=O)NC3Cc1ccccc1 (stereo not drawn)	14.8
CCC(=O)n1nc(-c2ccco2)nc1SCc1ccccc1	9.98
CCN(CC)S(=O)(=O)c1ccc(N=Nc2c(N)[nH]c(=O)[nH]c2=O)cc1	7.26
O=C(COC(=O)c1cccc(N2C(=O)C3CC=CCC3C2=O)c1)c1ccccc1 (stereo not drawn)	9.15
COc1ccc(OC)c(CCNC(=O)c2ccc3c(c2)N(Cc2ccccc2)CCS3)c1	16.2
CN1CCN(NC(=O)c2cc(S(=O)(=O)N3CCOCC3)c(Cl)cc2Cl)CC1.Cl	6.65
Cc1ccccc1-c1nnn(CC(=O)N2CCN(C(=O)c3ccco3)CC2)n1	-7.31
CN1CCC(=NOc2ccc([N+](=O)[O-])cc2)CC1	-56
O=C(CCC1CCCC1)c1c(O)c2ccccc2oc1=O	11.5
CSc1nc(=O)n2cccc(C)c2n1	5.38
Cc1cccc(Cn2c(C)nc3ccc([N+](=O)[O-])cc3c2=O)c1	8.37
CN(C)c1ccc(N2C(=O)CSC2=S)cc1	11.8
O=C1N=C(N2CCOCC2)S/C1=C\c1ccc(-c2ccccc2Cl)o1	2.81
Oc1c(Br)cc(Cl)cc1C=Nc1ccccc1Br	11.8
CCOC(=O)C1CCCN(c2c(NCCc3ccc(C)cc3)c(=O)c2=O)C1 (stereo not drawn)	9.64
CCOC(=O)C1=C(O)C(=O)N(c2ccc(S(N)(=O)=O)cc2)C1c1cccc([N+](=O)[O-])c1 (stereo not drawn)	1.5

Compound	hERG current change (%, negative = inhibition) at 1uM [%]
CCc1c(C)nc2[nH]nc(-c3ccccc3C)n2c1=O	3.87
COc1cccc(-c2ocnc2C(=O)Nc2ccc(N3CCOCC3)cc2N2CCOCC2)c1	15.6
Cc1ccc(C(=O)C(SC(C)(C)C)n2cncn2)cc1 (stereo not drawn)	9.33
COc1ccc(-c2csc(NC(C)c3nc4cc(Cl)c(Cl)cc4n3CCOCCO)n2)cc1 (stereo not drawn)	13.6
CC(C)n1cc(CN2CCN(CCc3ccccc3)C(CCO)C2)cn1 (stereo not drawn)	-25.4
O=C1C2C3C=CC(CC3)C2C(=O)N1c1ccc(F)cc1 (stereo not drawn)	16.2
COc1ccccc1C1C(C(=O)c2sc(C)nc2C)=C(O)C(=O)N1CCN1CCOCC1 (stereo not drawn)	6.41
CC(C)c1ccccc1NC(=O)COC(=O)C1(C)CC1(Cl)Cl (stereo not drawn)	16.6
O=C(Nc1ccc(Oc2ccc(C(=O)O)c(C(=O)O)c2)cc1)c1cccs1	32.6
C=CCNC(=O)c1cc2c(C(F)(F)F)nn(C)c2s1	11.6
O=C(Cn1c(-c2cscn2)nc2ccccc21)Nc1ccccc1F	8
Cc1ccc(C)c(NC(=O)CCN2CCc3ccccc3C2)c1	-0.637
CCN(CC(=O)NCc1ccc(F)cc1)C(=O)c1ccc2c(c1)OCO2	5.03
O=C(CSc1nccc(=O)[nH]1)Nc1cccc2ccccc12	21.2
Cc1ccc(C)c(N2CCN(C(=O)c3ccccc3Br)CC2)c1	4.91
Cc1cc(NCCCn2ccnc2)n2nc(-c3ccc(F)cc3)cc2n1	3.04
CCN(CC)CCCNc1nc(CN2CCOCC2)nc2sc3c(c12)CCC3	0.788
Cc1cccc(C)c1N1CCN(S(=O)(=O)N2CCOCC2)CC1	-9.13
COC(=O)c1ccc2nc(C(F)(F)F)[nH]c2c1	1.49
Cc1ccc(S(=O)(=O)N2CCOCC2)cc1C(=O)Nc1ccc(C(N)=O)cc1	9.14
CN(CC(=O)Nc1ccccc1C(F)(F)F)C(=O)c1cc(-c2cccs2)nn1-c1ccccc1	6.95
